Results: PubChem BioAssay AID1645882 (National Center for Advancing Translational Sciences (NCATS), 2021)
The whole screen tested about 16,000 compounds, of which about 120 (0.75%) were called active. Another 4% or so got no clear call; they are omitted. The call rests on the fitted dose curve; in most records, active means well fitted inhibition curve with a large enough effect; inconclusive means small, poorly fitted or top-dose-only effect; inactive means no such curve, though single readings can be large or run the other way. This is one part of the list.

target: Rap guanine nucleotide exchange factor 3 (Homo sapiens) (UniProt O95398); test: Validation qHTS for antagonist of cAMP-regulated guanine nucleotide exchange factor 3 (EPAC1); conditions: EPAC1 Rap1B-BODIPY-GDP exchange, fluorescence; series mostly up to 150 µM; activity change, negative = inhibition: at the top concentration;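 further: plate controls were DMSO for no effect and ATA control for full effect; nearly all actives have a fitted effect of over 75% in size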
UniProt O95398, sequence (O95398 whole entry, looked up): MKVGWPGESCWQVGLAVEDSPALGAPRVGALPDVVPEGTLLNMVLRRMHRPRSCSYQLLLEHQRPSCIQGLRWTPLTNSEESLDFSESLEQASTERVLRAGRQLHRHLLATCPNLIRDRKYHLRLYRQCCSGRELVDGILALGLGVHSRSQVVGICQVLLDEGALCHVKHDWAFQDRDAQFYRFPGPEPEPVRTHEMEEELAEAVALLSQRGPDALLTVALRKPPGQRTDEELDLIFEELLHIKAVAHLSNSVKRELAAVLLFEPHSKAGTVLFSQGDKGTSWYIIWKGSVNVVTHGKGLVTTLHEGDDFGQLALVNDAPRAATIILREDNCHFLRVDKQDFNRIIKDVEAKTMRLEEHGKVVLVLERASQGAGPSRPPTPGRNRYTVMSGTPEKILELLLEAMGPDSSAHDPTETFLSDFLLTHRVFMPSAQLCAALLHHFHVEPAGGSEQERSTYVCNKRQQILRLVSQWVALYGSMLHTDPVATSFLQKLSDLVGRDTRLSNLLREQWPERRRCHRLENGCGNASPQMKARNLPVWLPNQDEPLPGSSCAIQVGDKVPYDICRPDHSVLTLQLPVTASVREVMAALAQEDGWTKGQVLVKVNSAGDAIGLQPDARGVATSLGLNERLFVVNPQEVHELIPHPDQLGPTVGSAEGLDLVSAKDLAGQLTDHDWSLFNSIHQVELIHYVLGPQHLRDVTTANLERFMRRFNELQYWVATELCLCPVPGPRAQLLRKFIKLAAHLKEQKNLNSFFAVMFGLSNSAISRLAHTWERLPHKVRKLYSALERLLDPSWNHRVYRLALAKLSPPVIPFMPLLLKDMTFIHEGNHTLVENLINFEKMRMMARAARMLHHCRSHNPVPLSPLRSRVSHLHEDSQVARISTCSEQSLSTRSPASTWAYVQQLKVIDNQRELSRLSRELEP
Method in brief: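 Nucleotide exchange followed as fluorescence loss when BODIPY-GDP leaves Rap1B (480 nm excitation, 540 nm emission), read at 5 min intervals over 30 min. Reaction: 100 nM EPAC1, 250 nM RAP1B-BODIPY-GDP, 50 uM GDP; ATA and DMSO define normalization.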

Activity change, negative = inhibition, inactive:
COc1ccccc1CN1[C@@H](CC(=O)O)c2ccccc2S1(=O)=O 7.23%
Cc1cc2c(cc1Cl)N(C(=O)Nc1ccnc3ccccc13)CC2 -0.206% [at 75.8 µM]
C=CC[N+]1([C@H]2C[C@H]3[C@@H]4CC[C@H]5C[C@H](OC(C)=O)[C@@H](N6CCCCC6)C[C@]5(C)[C@H]4CC[C@]3(C)[C@H]2OC(=O)CC)CCCCC1 39.6%
CN/C(=C\[N+](=O)[O-])NCCSCc1csc(CN(C)C)n1 8.6% [at 75.8 µM]
Cc1cc(C)c(/C=C2\C(=O)Nc3ccccc32)[nH]1
O=C(NOC[C@H](O)CO)c1ccc(F)c(F)c1Nc1ccc(I)cc1F 33.3%
COc1ccc(-n2c(=O)c(-c3ccc(Cl)cc3)nc3cnc(N4CCNCC4)nc32)cc1 -0.258%
Cc1cnc(SCc2ccccn2)nc1C1CCCN(C(=O)c2cc3ccccc3oc2=O)C1 (stereo not given) -0.115%
COc1ccc(OC)c(CN2CCCC(c3nc(C)ncc3-c3ccc(F)cc3)C2)c1 (stereo not given) 9.73%
CS(=O)(=O)N1CCC[C@@]2(CCN(c3ccccc3)C2)C1 13.2%
CN1CCN(c2ccnc(-c3cccnc3)n2)CC1 0.807%
CN(C)c1ccc(CCC2C=Cc3ccccc32)cc1 (stereo not given) 20.6%
CN(C)c1ncc2nc(-c3ccc(Cl)cc3)c(=O)n(Cc3cccs3)c2n1 12.4%
CN1CCN(c2ccnc(-c3ccc(N(C)C)cc3)n2)CC1 8.41%
O=c1cc(O)c(Cl)c[nH]1 8.18%
c1ccc(OCc2ccc(CCCN3CCOCC3)cc2)cc1 1.88%
O=C(c1ccc(Cn2cnnn2)cc1)N1CCOc2ccc(C(O)C3CCCCC3)cc2C1 (stereo not given) -14%
O=C(NCCc1nnc2n1CCN(Cc1ccc3c(c1)CCO3)CC2)c1ccco1 9.17%
CC(C)=CCCC1=CC[C@H](C(=O)O)[C@H](C(=O)O)C1 15.8%
COc1ccc(OC)c(-c2cc(Cl)c3c(c2)CC(CNC(=O)/C=C/c2ccccn2)O3)c1 (stereo not given) 2.41%
Cc1cccc2cc(CNCCCN3CCCC3=O)c(N3CCN4CCCC4C3)nc12 (stereo not given) 0.346%
COc1ccc(-n2c(=O)c(C)nc3cnc(N4CCOCC4)nc32)cc1 8.43%
CN(C)c1ccc(-c2ccc3ncnc(-n4ccnc4)c3c2)cc1 2.85%
Cc1cnc(-n2ncc(C(=O)N(C)C3CCOC3)c2C)nc1-c1ccc(F)cc1 (stereo not given) 11.6%
COc1cc(=O)n2c(c1C(=O)N(C)Cc1nccs1)CCN(Cc1cc3ccccc3s1)CC2 5.51%
O=c1cc(-c2cccc(O)c2)oc2cc(O)ccc12 -2.47%
CCn1ccnc1CC1COc2ccccc2O1 (stereo not given)
COc1ccc(SC[C@H](Cc2ccccc2)N2CC[C@@H](C)CCC2=O)cc1 -1.96%
CC(C)=CCC/C(C)=C/CO
COc1cccc(C(=O)NCc2nc(-c3cccc(NC(=O)c4ccoc4C)c3)oc2C)c1 -15.8%
O=C(NCc1ccccn1)c1cnn(-c2nccc(-c3ccccc3F)n2)c1C1CC1 15.1%
COc1cc2c(Cc3c4c5c(cc(OC)c(OC)c5c5c(OC)c(OC)ccc35)CCN4C)c3c4c(cc(OC)c(OC)c4c2cc1OC)CCN3C -8.94%
Cc1ccc(CNc2ncnc3sc(C(=O)N4CCCC(C(N)=O)C4)c(C)c23)o1 (stereo not given) 10.1%
COc1ccc(-c2nc3cnc(N4CCNCC4)nc3n(-c3ccc(OC)cc3)c2=O)cc1 6.73%
O=C1c2ccccc2C(=O)c2c(O)ccc(O)c21 32.6%
CCC(C(=O)OCCN(CC)CC)c1ccccc1 (stereo not given) 12.5%
CCn1cc(C(=O)O)c(=O)c2cc3c(cc21)OCO3
COC(=O)Nc1nc2ccc(S(=O)c3ccccc3)cc2[nH]1 (stereo not given) -2.44%
Cc1cn(C2CCC(CO)O2)c(=O)[nH]c1=O (stereo not given) 11.8%
c1ccc2c(NCCN3CCOCC3)nc(-c3ccc4c(c3)OCO4)nc2c1 -7.23%
CCCS(=O)(=O)NCc1c(C)ncc2c1CCN(C(=O)c1cccc(-c3ccccc3F)c1)C2 11.5%
O=c1cc(-c2ccccc2O)oc2c1ccc1ccccc12 4.7%
CC(=O)NCCNc1ncncc1-c1ccc(N(C)C)cc1 13.1%
COc1ccccc1CN1CCC2(CC1)CCN(S(C)(=O)=O)CC2 6.7%
COc1ccc2cc1Oc1cc3c(cc1OC)CC[N+](C)(C)[C@H]3Cc1ccc(cc1)Oc1c(OC)c(OC)cc3c1[C@@H](C2)[N+](C)(C)CC3 22.2%
Cc1ccc2nc(CNC(=O)c3cc(NC(=O)c4ccccc4)cc4ncn(C5CCCC5)c34)cn2c1 -0.413%
Cn1cccc1C(=O)N1CCC2(CC1)CN(C(=O)Nc1cccc(F)c1)C2 -2.87%
COCCn1c(=O)cnc2cnc(OC)nc21 15.2%
CC(=O)c1ccc(F)c(-c2cc(C)cc3c2OC(CNC(=O)Cc2c[nH]c4ccccc24)C3)c1 (stereo not given) 3.68%
CC(C)NC(=O)N1CCCC2(CCN(C(=O)c3csnn3)CC2)C1 30.2%
NC(=O)N1c2ccccc2C=Cc2ccccc21
c1ccc2c(c1)OCC(CN1CCCCC1)O2 (stereo not given) 7.22%
COc1ccccc1CN1CCC2(CC1)c1ccccc1[C@@H](NC(=O)c1ccco1)[C@@H]2OC 18%
Cc1nc2sccn2c1CN1Cc2ccccc2OC(c2ccccc2F)C1 (stereo not given) 10.2%
C[C@@H]1Nc2ccc(Cl)cc2S(=O)(=O)N1 -13.7%
CCCCCCCCCCCCCC(=O)OCC(COP(=O)([O-])OCC[N+](C)(C)C)OC(=O)CCCCCCCCCCCCC (stereo not given) 12.9%
N#Cc1ccccc1OCC(O)CNCCNC(=O)Nc1ccccc1 (stereo not given) 13.4%
Cc1nc2cnc(N(C)C)nc2n(C2CC2)c1=O 21.5%
Cc1ncc[nH]1 7.29%
N#CCCn1c(=O)c(-c2ccc(F)cc2)nc2cnc(N3CCNCC3)nc21 1.52%
NCCC[C@H](N)C(=O)O 4.72%
Clc1ccc(C(Cn2ccnc2)OCc2c(Cl)cccc2Cl)c(Cl)c1 (stereo not given)
COc1ccc2c(c1)OCc1c-2oc2cc(OC)ccc12 12.1%
COc1c(O[C@@H]2O[C@H](CO)[C@@H](O)[C@H](O)[C@H]2O)cc2c(c1OC)-c1ccc(SC)c(=O)cc1[C@@H](NC(C)=O)CC2 9.92% [at 75.8 µM]
Cn1cccc1C(=O)N1CCC2(CCCN(c3ccncc3)C2)CC1 -0.457%
COc1ccc(C(=O)NCC2Cc3c(F)ccc(-c4nc(C)cnc4C)c3O2)cc1F (stereo not given) 7.89%
NC(CO)(CO)CO 27.1%
CCn1c(-c2cccc(OC)c2)nc2cc(NC(C)=O)cc(C(=O)N(C)CC3COCCO3)c21 (stereo not given) 13%
O=S(=O)(c1ccccc1)N1CCC2(CCCN(Cc3ccccc3)C2)CC1 2.17%
CCC(Oc1ccccc1)C(=O)N[C@@H]1C(=O)N2[C@@H]1SC(C)(C)[C@@H]2C(=O)O (stereo not given in full) 13.5%
CN(C)Cc1ccccc1-c1ccc2ncnc(NCc3cccs3)c2c1 17.7%
COc1ccc(Oc2ncc3ncc(=O)n(C)c3n2)cc1 9.6%
Cc1ccc(-c2nn(CC(C)(C)C)c3ncnc(N)c23)cc1 4.82%
COc1ncc2nc(-c3ccc(F)cc3)c(=O)n(C3CC3)c2n1 2.02%
CCOC(=O)C1OC1C(=O)NC(CC(C)C)C(=O)NCCC(C)C (stereo not given) 26% [at 201 µM]
CC(C)C(=O)NCC1CCC2(CCN(Cc3ccc(-c4cccc(Cl)c4)o3)CC2)O1 (stereo not given) 3.9%
C[C@@H](CCCCC(=O)Nc1ccc(C(F)(F)F)cc1)NCCc1cnc[nH]1 5.07%
CN(C)CCN(Cc1cccs1)c1ccccn1
O=C(c1ccc2c(c1)OCO2)N(Cc1cc2cc3c(cc2nc1N1CCOCC1)CCC3)CC1CCCO1 (stereo not given) 21.6%
COCCn1c(=O)c(-c2cccc(C#N)c2)nc2cnc(N3CCNCC3)nc21 2.44%
CN1CCN(c2ncc3nc(-c4cn(C)c5ccccc45)c(=O)n(CCc4ccccc4)c3n2)CC1 21.3%
O=c1cc(-c2ccccc2O)oc2ccc3ccccc3c12 17.3%
CC(=O)OCC(COC(C)=O)OC(C)=O
Cc1ccccc1N=C(N)Nc1ccccc1C
COc1ccccc1-c1cncnc1Nc1ccc(F)cc1 14%
Cc1cccc2cc(CN(CC3CCCO3)C(=O)c3cccc(F)c3)c(N(C)C)nc12 (stereo not given) 4.32%
CC1CCC2=C1C[C@H](C(C)(C)O)CC[C@@H]2C (stereo not given in full) 5.61%
O=C(O)C[C@H]1c2ccccc2S(=O)(=O)N1C1CCCCC1 12.9%
COc1cccc(Cn2c(=O)c(CCc3ccccc3)nc3cncnc32)c1 -6.53%
COc1ccc(-c2cccc3c2OC(CNC(=O)c2ccccc2-n2cccn2)C3)nn1 (stereo not given) 8.78%
COc1ccc(-c2nc3cnc(N(C)C)nc3n(CCc3ccccc3)c2=O)cc1 24.1%
COc1ccc(-c2nc3cnc(N4CCOCC4)nc3n(CCC#N)c2=O)cc1 68%
NC[C@H]1O[C@@H](n2cnc3c(N)ncnc32)[C@H](O)[C@@H]1O 8.98% [at 75.8 µM]
CC1(C)C(O)CC[C@]2(C)C1CC[C@@]1(C)C2C(=O)C=C2[C@@H]3C[C@@](C)(C(=O)O)CC[C@@]3(C)CCC21C (stereo not given in full) 16.9%
Cc1cccc2c(N3CCCC3)nc(CNS(=O)(=O)c3ccccc3Cl)nc12 -2.99%
COc1cccc(Nc2ncc3nc(-c4ccc(F)cc4)c(=O)n(CCC#N)c3n2)c1 28.9%
c1cnc2cc3c(cc2n1)[C@@H]1CNC[C@H]3C1 6.41%
O=c1cc(-c2ccccc2)oc2cc(O[C@@H]3O[C@H](CO)[C@@H](O)[C@H](O)[C@H]3O)c(O)c(O)c12 -17.8%
COc1ccc(-c2nc3cnc(N(C)C)nc3n(CCC#N)c2=O)cc1 6%
O=C(Cn1ccnc1[N+](=O)[O-])NCCO 15%
CC(=O)OC1CCC2(C)C3=C(CCC2C1(C)C)[C@]1(C)CCC(C(C)CCC=C(C)C)[C@]1(C)CC3 (stereo not given in full) -22.3%
CCCCCCCCCCCCCCCC(=O)NC(C)C 6.03%
COC(=O)c1c(OCCN2CCCCC2)cc(=O)n2c1CCN(Cc1cccc3nccnc13)CC2 -0.569%
Cc1cnc(CNc2ncncc2-c2ccc3c(c2)OCO3)cn1 12.8%
O=C(O)Cc1csc(-c2ccc(Cl)cc2)n1 19.6%
